Assay results: PubChem BioAssay AID686978 (National Center for Advancing Translational Sciences (NCATS), 2013)
In all, about 420,000 compounds went through this assay and about 64,000 (15%) were called active. Inconclusive results, whose numbers are uncertain, are shown with a selection of clear calls. Calls come from the whole dose curve; as a rule, active = well fitted inhibition curve with a large enough effect; inconclusive = small, poorly fitted or top-dose-only effect; inactive = flat fitted curve, though single readings scatter. No potency is given beside an inconclusive call; the fits are too rough.

Experiment: qHTS for Inhibitors of human tyrosyl-DNA phosphodiesterase 1 (TDP1): qHTS in cells in absence of CPT; note: nearly all actives have a fitted effect of over 55% in size
Conditions: DT40 Tdp1-/- hTDP1 cells, no CPT, ATP luminescence, 48 h; activity change, negative = growth inhibition: at 46.2 µM (top of the series) unless noted
Procedure, shortened: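 Stably hTDP1-transfected Tdp1-null chicken DT40 cells were treated with library compounds minus camptothecin and grown for at least 48 hr at 37 °C, after which cellular ATP was quantified by luminescence.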
% is set by controls: 0 for no effect and ±100 for the full control effect; potency is the fitted concentration of half-maximal effect; tags give direction and shape of the fitted curve.

Row | SMILES | Potency | activity change, negative = growth inhibition
1 | COC(=O)N(C)C[C@H]1OCc2cnnn2CCCC(=O)N([C@@H](C)CO)C[C@H]1C | inactive | –
2 | CCOC(=O)C1CCN(C(=O)c2cc3c(ccc4ccccc43)o2)CC1 | inconclusive [inhibitor, single point] | –
3 | Cc1cc(C)c(C#N)c(Sc2nc(C)c([N+](=O)[O-])c(C)c2C#N)n1 | active: 5.8 µM | –
4 | Cc1cc2ncn(-c3ncnc4sc(C)c(C)c34)c2cc1C | – | inconclusive: -38.8% [inhibitor]
5 | COc1ccc(NC(=S)N2CCN(C/C=C/c3ccccc3)CC2)cc1OC | inconclusive [inhibitor, partial curve] | –
6 | COc1ccc(NC(=S)NCC(O)c2ccccc2)c(OC)c1 (stereo not drawn) | inactive | –
7 | Clc1ccccc1CONc1ncnc2nonc12 | inconclusive [inhibitor, single point] | –
8 | O=C1[C@@H]2[C@@H]3C[C@@H]([C@H]4ON=C(c5ccc(OCc6ccccc6)cc5)[C@@H]34)[C@@H]2C(=O)N1c1ccc2c(c1)OCO2 | inconclusive [inhibitor, single point] | –
9 | CCOC(=O)c1c(C)[nH]c(C)c1C(=O)COC(=O)c1cccc(C)c1O | inconclusive [inhibitor, single point] | –
10 | CCc1ccc(CNC(=O)CCC(=O)N2Cc3cccc(OC)c3Oc3ncccc32)cc1 | inconclusive [inhibitor, single point] | –
11 | CCOc1ccc(C2/C(=C(\O)c3ccc4c(c3)OCCO4)C(=O)C(=O)N2CCCN2CCOCC2)cc1OC (stereo not drawn) | inconclusive [inhibitor, single point] | –
12 | C[C@@]12CCC3[C@@](CCC4[C@@]3(C)CCC[C@@]4(C)C(=O)N3CCOCC3)(CC1=O)C2 (stereo partly drawn) | inconclusive [inhibitor, partial curve] | –
13 | CC(C)Cc1ccc(S(=O)(=O)N2CCN(c3ccccn3)CC2)cc1 | inactive | –
14 | CCOC(=O)N(CC)OC(=O)Nc1ccc(Cl)cc1 | inactive | –
15 | Nc1ccc(OCc2ccco2)cc1 | inactive | –
16 | Cc1cc(C(=O)CSc2nn3c(=O)c(C(C)(C)C)nnc3s2)c(C)n1-c1ccc(F)cc1 | inconclusive [inhibitor, single point] | –
17 | OC(Cc1ccnc2ccccc12)C(Cl)(Cl)Cl (stereo not drawn) | active: 10.3 µM | –
18 | CC(=O)C1=C(c2ccccc2)NC(=O)NC1c1ccccc1OCC(=O)Nc1ccccc1 (stereo not drawn) | inconclusive [inhibitor, partial curve, poor fit] | –
19 | O=C(Nc1ccccc1)c1cc(C2CCCCN2C(=O)CCc2ccccc2)on1 (stereo not drawn) | inactive | –
20 | Cc1nn2c(N3CCOCC3)cc(C(C)(C)C)nc2c1-c1ccccc1 | inconclusive [inhibitor, partial curve, poor fit] | –
21 | N#Cc1c(SCc2ccc(Cl)cc2)sc(C(=O)c2ccccc2)c1N | inconclusive [inhibitor, single point] | –
22 | OCC1(CCOc2ccccc2)CCN(Cc2nc3ccc(F)cc3[nH]2)CC1 | inconclusive [inhibitor, single point] | –
23 | COc1ccccc1C(=O)CSc1cccc[n+]1[O-] | inactive | –

Row | SMILES | Potency | activity change, negative = growth inhibition
24 | CCOC(=O)c1oc2cccc(OCC(O)CNC(C)C)c2c1C (stereo not drawn) | inconclusive [inhibitor, partial curve] | –
25 | COCc1c(C(=O)Nc2cccc(S(=O)(=O)N3CCCCC3)c2)oc2ccccc12 | inconclusive [inhibitor, single point] | –
26 | CCOc1cccc(CNC(=O)c2ccc(N3CCCC3)c(NC(=O)NCc3ccc(F)cc3)c2)c1 | inactive | –
27 | CC(=O)c1cc(C)ccc1OC(=O)CCN1C(=O)C2C3c4ccccc4C(c4ccccc43)C2C1=O (stereo not drawn) | inconclusive [inhibitor, single point] | –
28 | Nc1c(-c2nc(-c3cccs3)no2)nnn1-c1ccccc1Cl | – | inconclusive: -30.2% [inhibitor]
29 | Cc1cccc(S(=O)(=O)C(C#N)c2nc3ccccc3nc2N2CCCC2)c1 (stereo not drawn) | inconclusive [inhibitor, partial curve, poor fit] | –
30 | CN(c1ccc(O)cc1)c1nc(-c2cccs2)cs1 | inconclusive [inhibitor, single point] | –
31 | O=C(NC1CCCC1)C(C1CC1)n1c(-c2cc3ccccc3[nH]2)nc2ccccc21 (stereo not drawn) | inconclusive [inhibitor, single point] | –
32 | COc1ccc(CCNC(=O)C2CCCN(C(=O)c3ccc(Cl)cc3)C2)cc1 (stereo not drawn) | inconclusive [inhibitor, single point] | –
33 | CC(C)Cc1nc2c(nnn2Cc2ccccc2F)c(=O)[nH]1 | inactive | –
34 | COc1ccc(C(O)c2nc(-c3cccc(F)c3)cs2)cc1 (stereo not drawn) | inconclusive [inhibitor, partial curve] | –
35 | CCOC(=O)C1(CCCc2ccccc2)CCN(C(=O)C2CCCO2)CC1 (stereo not drawn) | inconclusive [inhibitor, single point] | –
36 | Cc1ccnc(NC(=O)C2CCC(CNc3c(N4CCCC4)c(=O)c3=O)CC2)c1 (stereo not drawn) | inconclusive [inhibitor, single point] | –
37 | O=C1Nc2cc(C(=O)N3CCN(Cc4ccccc4)CC3)ccc2SC1N1CCOCC1 (stereo not drawn) | inconclusive [inhibitor, partial curve, poor fit] | –
38 | Cc1cnn(C(=S)NCc2ccco2)c1 | inconclusive [inhibitor, single point] | –
39 | COC(=O)c1c(C)[nH]c(C(=O)OCC(=O)c2c(N)n(CC(C)C)c(=O)n(C)c2=O)c1C | active: 14.6 µM | –
40 | O=C(COc1ccccc1CNCc1ccccc1)Nc1ccccc1 | active: 17.8 µM | –
41 | c1ccc(CN(Cc2ccccc2)c2c3c(nc4ncnn24)CCC3)cc1 | inconclusive [inhibitor, single point] | –
42 | CCN(CC)CCOC(=O)c1ccc(NC(=O)Cn2ncc3c([nH]c4ccc(C)cc43)c2=O)cc1 | active: 3.26 µM | –
43 | COc1ccccc1-c1nc2c3c(-c4ccccc4)c(-c4ccccc4)oc3ncn2n1 | inactive | –
44 | CCCn1nc(C(=O)N2CCN(c3ccccn3)CC2)c2ccccc2c1=O | inconclusive [inhibitor, partial curve] | –
45 | COCCn1c(CNC(=O)c2ccc(C)cc2)nc2cccnc21 | inactive | –
46 | Nc1nc2ccc(Oc3ccccc3)cc2s1 | inconclusive [inhibitor, partial curve, poor fit] | –

Row | SMILES | Potency | activity change, negative = growth inhibition
47 | Cc1ccc(S(=O)(=O)N(Cc2cc3cccc(C)c3[nH]c2=O)c2ccccc2)cc1 | inconclusive [inhibitor, single point] | –
48 | CC(C)(C)NC(=O)C[C@H]1C[C@H](C(=O)N2CCCCC2)[C@@]2(C)c3[nH]c4cc(-c5ccco5)ccc4c3CCN2C1=O | active: 25.9 µM | –
49 | CC(=O)N1CCN(c2ccc(NC(=O)/C=C/c3ccccc3)cc2)CC1 | inconclusive [inhibitor, single point] | –
50 | O=C(CN(Cc1ccccc1Cl)C(=O)CN1C(=O)CSc2ccccc21)NC1CC1 | inconclusive [inhibitor, single point] | –
51 | Cc1ccccc1N1CCN(c2ccc(NC(=O)C3CCCCC3C(=O)O)cc2)CC1 (stereo not drawn) | active: 9.2 µM | –
52 | COCc1cccc(-c2csc(C(NC(C)=O)c3ccccc3)n2)c1 (stereo not drawn) | inactive | –
53 | CC(C)n1c(O)c(/C=C2\C=NN=C2c2ccccc2)sc1=S | inconclusive [inhibitor, single point] | –
54 | O=C(Nc1ccc(F)cc1F)N1CCC(c2nc3ccccc3o2)CC1 | inactive | –
55 | CCN(CC)c1ccc2oc(=O)c(C)nc2c1 | active: 5.8 µM | –
56 | O=C1NC(=Nc2cccnc2)S/C1=C\c1cccc(F)c1 | active: 13 µM | –
57 | CCOCCc1c(O)nc(SCC(=O)N2CCOCC2)[nH]c1=O | inactive | –
58 | CCOc1ccccc1NC(=O)c1cccc(NC(=O)C(C)C)c1 | inconclusive [inhibitor, partial curve] | –
59 | Cc1nc2ccccc2c2oc(C(=O)NCc3ccccn3)cc12 | inconclusive [inhibitor, single point] | –
60 | COc1cccc(/C=C2\SC(=S)N(CC(=O)N(C)C3CCS(=O)(=O)C3)C2=O)c1 (stereo not drawn) | inactive | –
61 | O=C(c1ccc2c(=O)n(Cc3ccc4c(c3)OCO4)c(=S)[nH]c2c1)N1CCN(Cc2ccccc2)CC1 | inconclusive [inhibitor, single point] | –
62 | COCCn1c(C(=O)N(C)C)cc2c1C[C@H]1CN(C(=O)c3ccccc3)[C@@](Cc3ccc(F)cc3)(C(=O)OC)[C@@H]21 | inconclusive [inhibitor, single point] | –
63 | COc1ccc([C@H]2CC(=O)C=C(c3cccc(Br)c3)C2)cc1 | inconclusive [inhibitor, single point] | –
64 | CC(C)(C)C(=O)Nc1ccc(N2CCN(c3ccc(C(F)(F)F)cn3)CC2)nc1 | active: 1.46 µM | –
65 | COc1cccc(NC(=O)CN(C)C(C)C(=O)Nc2ccc(C#N)cc2)c1 (stereo not drawn) | inconclusive [inhibitor, partial curve] | –
66 | Cc1c2cnn(-c3ccccc3)c(=O)c2c(C)n1CCCC(=O)Nc1cc(F)ccc1F | inconclusive [inhibitor, single point] | –
67 | CCc1nc(N2CCN(CC(=O)NCC3CCCO3)CC2)c(C#N)c2c1COC(C)(C)C2 (stereo not drawn) | inconclusive [inhibitor, single point] | –
68 | O=C(Nc1ccncc1)c1ccc(Cl)c(S(=O)(=O)N2CCCC2)c1 | active: 25.9 µM | –
